# Test results as given in the supplement of paper PMC11246515.
# Test: total protein half-life in vivo (active degradation + dilution); higher = more stable protein
# [1] = E. coli NCM3722 delta-clpP delta-lon delta-hslV, growth: N-lim chemostat, doubling time 6 h
# [2] = E. coli NCM3722 delta-clpP, growth: N-lim chemostat, doubling time 6 h
# [3] = E. coli NCM3722 delta-hslV, growth: N-lim chemostat, doubling time 6 h
# [4] = E. coli NCM3722 delta-lon, growth: N-lim chemostat, doubling time 6 h
# [5] = E. coli NCM3722 delta-smpB, growth: N-lim chemostat, doubling time 6 h
# [6] = wild type E. coli NCM3722, growth: C-lim chemostat, doubling time 3 h
# [7] = wild type E. coli NCM3722, growth: C-lim chemostat, doubling time 6 h
# [8] = wild type E. coli NCM3722, growth: C-lim chemostat, doubling time 12 h
# [9] = wild type E. coli NCM3722, growth: N-lim chemostat, doubling time 6 h
# [10] = wild type E. coli NCM3722, growth: N-lim chemostat, doubling time 12 h
# [11] = wild type E. coli NCM3722, growth: P-lim chemostat, doubling time 6 h
# [12] = wild type E. coli NCM3722, growth: P-lim chemostat, doubling time 12 h
Sequence,total protein half-life in vivo [1] [h],total protein half-life in vivo [2] [h],total protein half-life in vivo [3] [h],total protein half-life in vivo [4] [h],total protein half-life in vivo [5] [h],total protein half-life in vivo [6] [h],total protein half-life in vivo [7] [h],total protein half-life in vivo [8] [h],total protein half-life in vivo [9] [h],total protein half-life in vivo [10] [h],total protein half-life in vivo [11] [h],total protein half-life in vivo [12] [h]
MAGAKEIRSKIASVQNTQKITKAMEMVAASKMRKSQDRMAASRPYAETMRKVIGHLAHGNLEYKHPYLEDRDVKRVGYLVVSTDRGLCGGLNINLFKKLLAEMKTWTDKGVQCDLAMIGSKGVSFFNSVGGNVVAQVTGMGDNPSLSELIGPVKVMLQAYDEGRLDKLYIVSNKFINTMSQVPTISQLLPLPASDDDDLKHKSWDYLYEPDPKALLDTLLRRYVESQVYQGVVENLASEQAARMVAMKAATDNGGSLIKELQLVYNKARQASITQELTEIVSGAAAV [P0ABA6],5.94 ± 0.68,5.84 ± 0.6,4.97 ± 0.71,5.848 ± 0.015,5.44 ± 0.29,3.01 ± 0.1,6.44 ± 0.32,12.45 ± 0.032,5.597 ± 0.055,10.1 ± 0.32,5.78 ± 0.32,14 ± 0.81
MAMTYHLDVVSAEQQMFSGLVEKIQVTGSEGELGIYPGHAPLLTAIKPGMIRIVKQHGHEEFIYLSGGILEVQPGNVTVLADTAIRGQDLDEARAMEAKRKAEEHISSSHGDVDYAQASAELAKAIAQLRVIELTKKAM [P0A6E6],6.51 ± 0.31,–,6.58,5.87 ± 0.14,–,3.26 ± 0.11,6.35 ± 0.12,11.2 ± 0.58,5.65 ± 0.88,11.8,5.73 ± 0.28,14.3
MAVTNVAELNALVERVKKAQREYASFTQEQVDKIFRAAALAAADARIPLAKMAVAESGMGIVEDKVIKNHFASEYIYNAYKDEKTCGVLSEDDTFGTITIAEPIGIICGIVPTTNPTSTAIFKSLISLKTRNAIIFSPHPRAKDATNKAADIVLQAAIAAGAPKDLIGWIDQPSVELSNALMHHPDINLILATGGPGMVKAAYSSGKPAIGVGAGNTPVVIDETADIKRAVASVLMSKTFDNGVICASEQSVVVVDSVYDAVRERFATHGGYLLQGKELKAVQDVILKNGALNAAIVGQPAYKIAELAGFSVPENTKILIGEVTVVDESEPFAHEKLSPTLAMYRAKDFEDAVEKAEKLVAMGGIGHTSCLYTDQDNQPARVSYFGQKMKTARILINTPASQGGIGDLYNFKLAPSLTLGCGSWGGNSISENVGPKHLINKKTVAKRAENMLWHKLPKSIYFRRGSLPIALDEVITDGHKRALIVTDRFLFNNGYADQITSVLKAAGVETEVFFEVEADPTLSIVRKGAELANSFKPDVIIALGGGSPMDAAKIMWVMYEHPETHFEELALRFMDIRKRIYKFPKMGVKAKMIAVTTTSGTGSEVTPFAVVTDDATGQKYPLADYALTPDMAIVDANLVMDMPKSLCAFGGLDAVTHAMEAYVSVLASEFSDGQALQALKLLKEYLPASYHEGSKNPVARERVHSAATIAGIAFANAFLGVCHSMAHKLGSQFHIPHGLANALLICNVIRYNANDNPTKQTAFSQYDRPQARRRYAEIADHLGLSAPGDRTAAKIEKLLAWLETLKAELGIPKSIREAGVQEADFLANVDKLSEDAFDDQCTGANPRYPLISELKQILLDTYYGRDYVEGETAAKKEAAPAKAEKKAKKSA [P0A9Q7],6.83 ± 0.95,6.56 ± 0.49,4.441 ± 0.029,4.35 ± 0.058,4.4 ± 0.076,2.86 ± 0.041,5.17 ± 0.29,9.32 ± 0.61,4.284 ± 0.013,6.99 ± 0.12,4.3 ± 0.15,8.13 ± 0.7
MAYSEKVIDHYENPRNVGSFDNNDENVGSGMVGAPACGDVMKLQIKVNDEGIIEDARFKTYGCGSAIASSSLVTEWVKGKSLDEAQAIKNTDIAEELELPPVKIHCSILAEDAIKAAIADYKSKREAK [P0ACD4],3.32 ± 0.41,1.56 ± 0.094,1.3 ± 0.2,1.88 ± 0.23,1.18 ± 0.15,1.9 ± 0.07,1.93 ± 0.1,2.3 ± 0.32,1.31 ± 0.12,1.58 ± 0.021,2.09 ± 0.13,3.62 ± 0.89
MKLPIYLDYSATTPVDPRVAEKMMQFMTMDGTFGNPASRSHRFGWQAEEAVDIARNQIADLVGADPREIVFTSGATESDNLAIKGAANFYQKKGKHIITSKTEHKAVLDTCRQLEREGFEVTYLAPQRNGIIDLKELEAAMRDDTILVSIMHVNNEIGVVQDIAAIGEMCRARGIIYHVDATQSVGKLPIDLSQLKVDLMSFSGHKIYGPKGIGALYVRRKPRVRIEAQMHGGGHERGMRSGTLPVHQIVGMGEAYRIAKEEMATEMERLRGLRNRLWNGIKDIEEVYLNGDLEHGAPNILNVSFNYVEGESLIMALKDLAVSSGSACTSASLEPSYVLRALGLNDELAHSSIRFSLGRFTTEEEIDYTIELVRKSIGRLRDLSPLWEMYKQGVDLNSIEWAHH [P0A6B7],3.67 ± 0.65,2.88 ± 0.19,1.54 ± 0.033,2.45 ± 0.23,1.74 ± 0.034,2.23 ± 0.071,2.78 ± 0.22,3.83 ± 0.34,1.71 ± 0.12,2.23 ± 0.24,2.58 ± 0.12,4.64 ± 0.52
MNLNATILGQAIAFVLFVLFCMKYVWPPLMAAIEKRQKEIADGLASAERAHKDLDLAKASATDQLKKAKAEAQVIIEQANKRRSQILDEAKAEAEQERTKIVAQAQAEIEAERKRAREELRKQVAILAVAGAEKIIERSVDEAANSDIVDKLVAEL [P0ABA0],6.24 ± 0.12,5.79 ± 0.46,6.27 ± 0.64,5.65 ± 0.39,5.74 ± 0.37,3.166 ± 0.014,6.38 ± 0.38,12.4 ± 0.82,5.98 ± 0.4,13.6 ± 1.9,5.58 ± 0.5,13.3 ± 0.97
MSEFITVARPYAKAAFDFAVEHQSVERWQDMLAFAAEVTKNEQMAELLSGALAPETLAESFIAVCGEQLDENGQNLIRVMAENGRLNALPDVLEQFIHLRAVSEATAEVDVISAAALSEQQLAKISAAMEKRLSRKVKLNCKIDKSVMAGVIIRAGDMVIDGSVRGRLERLADVLQS [P0ABA4],6.67 ± 0.17,6.73 ± 1.6,5.48 ± 0.18,5.7 ± 0.4,5.425 ± 0.021,3.13 ± 0.098,6.19 ± 0.15,12.5 ± 0.23,5.65 ± 0.2,10.7 ± 1.3,5.81 ± 0.1,12.68 ± 0.059

# ± gives the standard deviation of the averaged measurements.
